Experimental data published in the supplement of paper PMC3334620.
In all, about 33,000 sequences were measured (“E-score (-0.5 to 0.5)”: median about -0.012, highest 2% from about 0.27 on). The list shows a part of the results.

Target: T1, Vhr1 (UniProt P40522)
T1 sequence: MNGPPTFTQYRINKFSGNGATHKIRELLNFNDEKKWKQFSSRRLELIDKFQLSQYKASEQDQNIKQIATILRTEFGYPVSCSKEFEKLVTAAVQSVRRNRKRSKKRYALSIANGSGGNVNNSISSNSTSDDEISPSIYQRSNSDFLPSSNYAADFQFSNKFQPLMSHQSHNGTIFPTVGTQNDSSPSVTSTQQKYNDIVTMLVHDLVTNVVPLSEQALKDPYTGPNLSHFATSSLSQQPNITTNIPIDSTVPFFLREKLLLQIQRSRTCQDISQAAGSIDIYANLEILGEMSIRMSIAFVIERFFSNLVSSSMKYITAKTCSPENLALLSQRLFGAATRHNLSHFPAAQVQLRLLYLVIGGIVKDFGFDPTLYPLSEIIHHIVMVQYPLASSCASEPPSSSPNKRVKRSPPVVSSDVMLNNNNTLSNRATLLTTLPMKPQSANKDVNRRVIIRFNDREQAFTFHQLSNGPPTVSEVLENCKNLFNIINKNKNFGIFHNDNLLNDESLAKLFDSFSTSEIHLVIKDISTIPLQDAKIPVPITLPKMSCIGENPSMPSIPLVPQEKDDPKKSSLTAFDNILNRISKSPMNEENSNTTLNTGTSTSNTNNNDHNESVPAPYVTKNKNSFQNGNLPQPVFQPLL
Assay: PBM E-score (8-mer binding enrichment) (E-score (-0.5 to 0.5)); higher = stronger / more preferred TF binding; most listed sequences are background and not binding sites
Settings: protein concentration: 200 nM; construct: GST-full length
In short: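 Universal all-10-mer Agilent arrays, fresh or stripped once, were converted to double-stranded form by primer extension. GST-tagged yeast transcription factors from PURExpress in vitro transcription/translation, full-length or DNA-binding domain only, were applied at about 100-200 nM and detected with fluorescent anti-GST. After masliner normalisation, the Universal PBM Analysis Suite scored each ungapped eight-base word together with its reverse complement by E-score.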

Sequence | PBM E-score
CTATTAAC | 0.0176
GGGATTAA | 0.0145
ATAAGGAA | -0.167
GTCATCTA | 0.228
GACATGCC | 0.0525
AGAAATCT | -0.217
CATCCGAC | 0.107
ACAGGATG | 0.184
ACAGGAGA | 0.109
ACTCCCAG | 0.136
TGGGAGAA | -0.0874
ATCAGCCG | 0.0961
ACATCCGC | 0.00591
AGAATTCA | -0.223
CTTCTGGA | -0.127
AGGGCCAG | -0.00285
TGCTTCCA | -0.349
ACTGCAGT | 0.0933
GGCCTCCC | -0.0495
ACTCCCAT | 0.208
ATTGACTG | 0.128
TTATACAA | -0.065
ATTTTCGG | -0.111
CCGGGACG | -0.149
CATCTCCA | 0.0772

Sequence | PBM E-score
ACGAACAT | 0.0873
CGCTGTAA | 0.0565
ACACATTG | 0.169
CACCTCTA | 0.0402
CTGTTAAC | -0.0127
CCTTACCA | -0.0869
CCAGCACC | -0.15
ACTTAAAG | -0.293
AATGTTAT | -0.0251
ACCACCCC | 0.112
CAGGGCCC | 0.0132
CGTATTTA | 0.0935
AGGCTACA | 0.0844
ACTCTCAA | -0.173
AAGGTTAG | -0.205
CGATCAGC | -0.0243
GGCCAGTA | 0.0481
AGATCCCG | 0.297
CTACAATC | 0.165
CCGACAGG | 0.125
CAATACAG | 0.109
ATCGCGTG | 0.199
CTTTGGAA | -0.193
CGGATATA | 0.18
CGCTGCTC | -0.142

Sequence | PBM E-score
CCTTAATC | -0.0483
AAATTCGC | -0.0808
TAAACAAA | -0.0338
CGGCTTGA | -0.0374
CAACGCCC | -0.158
AGTGTAGG | 0.0837
ACTCAAGT | -0.0907
GGGCTACA | -0.161
TGCGGACA | 0.0503
CACAGAGC | 0.0408
AGATTTTG | -0.0437
GACATAAC | 0.00863
CACCCGCA | -0.0465
AACAACAT | 0.0565
GCGCTTAC | -0.329
GGACCTCA | -0.045
GCTTCAAA | -0.272
ATGAGGGC | -0.109
AGAACATC | -0.0202
AATGTGCG | 0.18
ACAAAGGC | -0.14
AACGTGCC | -0.111
AGCTTCTG | -0.143
GGCACTGA | -0.0319
CTAACTTC | -0.253

Sequence | PBM E-score
CACGTGCA | -0.0875
CTTAGCAA | -0.0949
ACTGATTC | 0.283
GAAATTCA | -0.198
AACCTATG | 0.0205
AGCTTAAA | -0.0429
CGGTAAGC | -0.0847
CCGCAAGC | -0.0225
GTCGCGAC | 0.379
CGAAAAGC | -0.0652
CCATTCGC | 0.109
TGTCGTAA | -0.118
CCCGTGTC | 0.0519
CAGAGGAA | 0.117
ATTTAGTC | 0.246
GCCAACTA | 0.09
ACGGTGGG | 0.121
ATCGTAAC | 0.0764
CGGTACCG | 0.0666
GGCTTTTA | -0.219
GCTGGTCC | -0.0736
AATATGTC | -0.0552
CGCGAGGA | 0.0661
ACTTGTAA | -0.247
AAATAAGC | -0.363

Sequence | PBM E-score
CACGGTCG | -0.0864
TCTAGGCA | -0.208
CTGTCTAA | -0.0566
TCCAAGCA | -0.0112
GATTCCGC | 0.216
CGCCGACG | -0.0192
ACACCCCC | -0.0905
GTGGGAAC | -0.0677
GGCGCCAC | 0.0321
CAGCTTCC | -0.179
CATCGATA | 0.213
AGGGATCG | -0.0799
CACCTCAG | -0.0536
CAAGGCCA | -0.108
CGTGAGGC | -0.0326
GGCGGGAA | -0.0569
ACGACTAT | 0.195
CTCATCCC | 0.0565
ACCGCCCT | -0.0373
CAGATTGC | -0.0393
TGGATACA | 0.193
AAAGTAAG | -0.289
CATCGGGC | -0.00993
ACGACTAA | 0.194
GCCAGCAA | -0.0258

Sequence | PBM E-score
GGCGGACC | 0.0976
CCCGTTGA | 0.0338
CTAAACAC | -0.2
CACCTCAA | 0.0626
ATGACATC | 0.153
CCCTAGGG | -0.176
TTCAGGAA | -0.175
CTTGCCAA | -0.019
AAAGACCA | -0.235
GGAACCTA | -0.0803
ACTGAATG | 0.0153
CGCCTACG | 0.0944
TGACCAAA | -0.0823
ATTAGGCG | -0.12
AATAATCT | 0.0897
ATGAACGA | -0.0507
ATTAAACA | -0.0208
AATATCTA | 0.0107
GGTGACGA | 0.113
CAGCTCCC | -0.139
GAACCTCC | -0.0862
AGTAAAGG | 0.0581
AGAGGTGG | -0.222
CACGCGAG | 0.0874
GAGCAGAC | -0.032

Sequence | PBM E-score
TGACAACA | 0.115
ACTAGGCC | -0.211
CCGTAAGG | -0.31
GTTAGATA | -0.00426
CACATGCC | 0.0666
ACTCGCAT | 0.19
CTTGGGGA | 0.0162
CTGACCTA | 0.0533
GGAGGGCC | -0.136
ACCACACA | 0.0973
ACAGCTGC | -0.0546
ATGATTGA | 0.344
ATAACCTG | -0.184
AAATTGTT | -0.12
CCACGCAC | 0.0547
ATATGGTC | 0.0487
ATCTGCCA | -0.0347
CTCGCTTA | -0.0254
CCCCGCCG | 0.144
GAGTTGTA | -0.0334
CATTAACA | 0.147
CGACTGAG | 0.047
AGTGGAAT | 0.00102
ATAACTTA | -0.0151
ACCGCTGC | -0.0871

Sequence | PBM E-score
CATTGTAA | 0.155
CATCATGA | 0.276
ACGACTCC | 0.366
AACCGCAG | 0.0303
CCTAACGC | -0.0631
CATCAGTA | 0.134
AGCTGAAT | -0.023
CGTTCCTC | -0.0157
AACCGAGG | -0.0651
CACTGTTA | 0.00219
ACTCGACC | 0.0604
ATAGATAA | 0.00589
CACTGTAG | 0.142
CAGCACTG | 0.0756
GGCAAGGA | -0.242
CCGGTAAA | -0.127
AAGAGAGC | -0.365
GATTGACA | 0.0916
AGGGTCTG | -0.108
AGTCTAAT | -0.153
CAGACCAG | -0.0356
CCTGTGCA | -0.0814
AGACATTC | -0.115
CCAAAGAA | -0.123
AGAGCGCC | -0.134

Sequence | PBM E-score
AGTACCGA | -0.00877
GCCACAAC | 0.116
CCACAGGC | -0.0524
AGCCATCG | 0.15
GACTGATC | 0.119
AAGCCCGC | 0.0323
ACGAGCCA | 0.225
GATTGACC | 0.085
ATACCTCG | 0.0872
CCTATCGC | -0.151
AAGCGGGC | -0.121
AAGTCGCA | 0.173
CCATAAGC | -0.18
AGACGGCA | 0.0868
ATGGCGCC | -0.0318
AATCGCGA | 0.26
TATGTCAA | -0.0148
CCGATCCG | 0.13
CAACATTA | 0.0457
